Sequences and labels used below:
T1: UNK ZnF1-3 (human, UniProt Q9C0B0 31-174)
T1 sequence: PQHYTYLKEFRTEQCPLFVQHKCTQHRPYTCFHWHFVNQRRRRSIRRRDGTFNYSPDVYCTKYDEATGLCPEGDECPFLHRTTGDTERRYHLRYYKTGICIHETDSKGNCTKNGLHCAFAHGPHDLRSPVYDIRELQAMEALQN

B1: chr12:85018817:85018818:+_ENSMUSG00000010608_ENSMUST00000048155|mus_mus|motif|central (ssRNA)
RNA: GGGAGUUCUACAGUCCGACGAUCUUCUGCUUCUUCAUCUAGUACCAUGGCAACAUCAUCUAAAAUGCUCUGUGGUGAACGGUGUGCCAUAACCUUAGAGCAAACAAAAUCAACUAAUGUAGCUUCUUCUUCACCUAUGUAUUCCAACAGAGGAUUGAGCAUCA
B2: chr7:65705844:65705845:+_ENSG00000169902_ENST00000304842|hu_mus|hu_hu_hu_mus_False|68_108 (ssRNA)
RNA: GGGAGUUCUACAGUCCGACGAUCAAAAGGAUCUUUAUUACAUAAAUAAGGUGCCGGCUCCCCAUGUUUAACGAUAACCUCCAGAAGGAAGGCUUGCAUGGCAGAAUCUAGCACUUCAUCUGUGACACCCGCCUCAUCCAAGCGCAACAGAGGAUUGAGCAUCA
B3: chr1:55209531:55209532:+_ENSMUSG00000025979_ENSMUST00000162364|mus_hu|FALSE|FALSE (ssRNA)
RNA: GGGAGUUCUACAGUCCGACGAUCGUUAUCCUUGGACAUCAAAUUGUAUUUCAUCACAAACUUAGUAAACCGAUGACACAAAAAUGUUUCAUUUUCAUAUUCAUCAAAUAUCUGCCGAUGAUGAAAAUAAGCAUGUGAAAAUAUCAACAGAGGAUUGAGCAUCA
B4: chr8:117866615:117866616:-_ENSG00000164754_ENST00000297338|hu_mus|FALSE|FALSE (ssRNA)
RNA: GGGAGUUCUACAGUCCGACGAUCAAGCUUCUUGGUUGGCGGAGCCAGGUCCAGAGUCGUAACAAUAUCAGAAUAAUCGCUAAGCUGGGCUCUAAUGGUCUUACUAUCCAAUUCUUUGACACUGUCAACAAUCAGCUUCCUCUUCAACAGAGGAUUGAGCAUCA
B5: 57474714_57474834_186_3pUTR_ENSG00000005194_ENST00000569370|human|control|control (ssRNA)
RNA: GGGAGUUCUACAGUCCGACGAUCCACGCGGCCCUCAUUGCCGGUUAACGCUUGAAGCUUAUCCACCAGACCUUUCAGAGCCUCCACUGGGGAUGACUUAUCCCAGACCACUGCCACAAACUGGCCAGCAGAGAUCCCAAAAUCCAACAGAGGAUUGAGCAUCA
B6: 108213750_108213870_1231_3pUTR_ENSG00000128590_ENST00000249356|human|control|control (ssRNA)
RNA: GGGAGUUCUACAGUCCGACGAUCACAGAAAAUUGUUUAGCAUCAAAGAUAAUGAGGAAGAGUCAACCAGUUGGAUUUAGUGAGAAUAGAAUAAGAACUACUGUCCUGAACAGUCAGUGUAUGUAGUAACCAUAUUUCCUCUUCCAACAGAGGAUUGAGCAUCA
B7: chr18:33598288:33598289:-_ENSMUSG00000042834_ENSMUST00000171533|mus_mus|motif|central (ssRNA)
RNA: GGGAGUUCUACAGUCCGACGAUCAGUCAGAAUGAUUAAAAACUGGUUUGAUGAAACCUAUUUGUCCACUGUAAAUUCUCGGAAGCCAGGCUUAGAGUCCCAUAGUUUCUUCUUAUAGUUGAUGAUUUACACAGAAAAAAAAAACAACAGAGGAUUGAGCAUCA
B8: chr10:121586544:121586545:+_ENSG00000198825_ENST00000369080|hu_mus|FALSE|FALSE (ssRNA)
RNA: GGGAGUUCUACAGUCCGACGAUCCGACUGCCUAAUCGAGGUGCUGACACAAUAAUCCCACAGCUUGGGAGAAUGUAAUCUAUUGGCCCUACGCUCUCUAAAGAAUUGGCUAGCUGCUUGUCUUCCUCCGACUUAGAAUUUGUACAACAGAGGAUUGAGCAUCA
B9: 13605823_13605943_2776_CDS_ENSG00000038219_ENST00000040738|human|control|control (ssRNA)
RNA: GGGAGUUCUACAGUCCGACGAUCUGUUCGUCGUUUCUCCUUGUGAACAACCUCUUCUGGUUUCAAAUUACUAUCCAUGUUAGUGGAGUCCAUAUCACACUUAUCUUCCGAAUAACUUUCACUUCUUCUCUGUAAUGUGAUACCCAACAGAGGAUUGAGCAUCA
B10: chr2:183853844:183853845:-_ENSG00000061676_ENST00000360982|hu_mus|FALSE|FALSE (ssRNA)
RNA: GGGAGUUCUACAGUCCGACGAUCGUGAAUGUGGAAAACUUCAUCCCGAAAGAGAGAGAGGCAAGAGCUACUCUGAAGAGCUAGCUUCCAAAGGUUCAGUGCGGUAGCCUCCGUAUUUAGCAUCCCAUGGCACAGAAUAAAGCCCAACAGAGGAUUGAGCAUCA
B11: 86505474_86507168_1115_CDS_ENSMUSG00000032418_ENSMUST00000034989|mouse|control|control (ssRNA)
RNA: GGGAGUUCUACAGUCCGACGAUCUUUUGAGUCAACCAACCAUAUCUUCUUUCUAGCAUUCUCCUUUGAUAAACCUUCUUUCUCCAUGGCCAUAACAACCAAGUGAGCAAUCCCCAAGGCAGCCUCUCCAGCUCCCUGGAACAGCAACAGAGGAUUGAGCAUCA
B12: chr8:28149726:28149727:+_ENSMUSG00000031483_ENSMUST00000033873|mus_mus|FALSE|FALSE (ssRNA)
RNA: GGGAGUUCUACAGUCCGACGAUCCUGGAGCUAUUAACCCAAGGUAAUUUAUCUAGUGGUAUCAUUUAUGGAAUAAUUACUAUAACAAGAAUCAUUUCUCAGUUAUAAAGGCUCAUUAAUGCCCUUGGGGCACACUGAAAAAAUCAACAGAGGAUUGAGCAUCA
B13: chr3:179287964:179287965:+_ENSG00000136518_ENST00000429709|hu_hu|hu_hu_hu_mus_True|28_88 (ssRNA)
RNA: GGGAGUUCUACAGUCCGACGAUCCUUGAGUGGUGAGAUGGCCUCCAUAUUCUCCCUGGGCACGCGGAGGGCAUUGGUGUCUAUGUAGUAGGUGGGCCCGCCCUGCUUGCCUUUAUCACCAUCAAUCUCCAUCAUUGUACUUCCCAACAGAGGAUUGAGCAUCA
B14: chr2:31072873:31072874:+_ENSMUSG00000000194_ENSMUST00000056433|mus_hu|FALSE|FALSE (ssRNA)
RNA: GGGAGUUCUACAGUCCGACGAUCUACGUGAGUCUUACAAGGCCAGGGGCGGGUCAGAGAAAAGCAGCGGGGUGAAGUGUGGAGUGUGGAAGCAGGGGUGCAGCAGUGUGCUAGAUCUGUUUCCUUUGAAGUACAGCAGCUUGGCAACAGAGGAUUGAGCAUCA
B15: chr17:55916980:55916981:-_ENSG00000181610_ENST00000313608|hu_hu|FALSE|FALSE (ssRNA)
RNA: GGGAGUUCUACAGUCCGACGAUCUCACAUAACUGCUUCUGUCAAACCAUGAUACUGAGCUUUGUGACAACCCAGAAAUAACUAAGAGAAGGCAAACAUAAUACCUUAGAGAUCAAGAAACAUUUACACAGUUCAACUGUUUAACAACAGAGGAUUGAGCAUCA
B16: chr9:37441256:37441257:-_ENSG00000168795_ENST00000307750|hu_mus|FALSE|FALSE (ssRNA)
RNA: GGGAGUUCUACAGUCCGACGAUCUGGCCCAGCCUCUGGACUCAACAGAUAAGGGGCCUCGCCCUCGAGCCUACAGUCACUGGUGGUGUUUGGGAGGUUGUCGUCAGUGCUCUGACUUGCACUGAAAUUACUCCCCCUGCUCUUCAACAGAGGAUUGAGCAUCA
B17: chr1:39333270:39333271:-_ENSG00000214114_ENST00000397572|hu_mus|motif|central (ssRNA)
RNA: GGGAGUUCUACAGUCCGACGAUCUUCUGCCAAUUCUAGGCGAAGCAGCUCUAUUUCUGGGUUUUCCGGGGUAGCAGCUCCGGAGUGAUGCUUUAAAAAAUCCAGAGCACUGGUGGGCUUCUCUGGUUCUUCAUAUAAGGCUACCAACAGAGGAUUGAGCAUCA
B18: 192194736_192206287_480_CDS_ENSG00000128641_ENST00000304164|human|control|control (ssRNA)
RNA: GGGAGUUCUACAGUCCGACGAUCCAGGACCGGGUUGGACUGUAAAAGCUGUUCUUUAACUUGAUUAACUUCUGCUCCUUUUCCACAAACAGCUGCCACAUAGGACAUGACAAGCUUACUGGCCUCUGUUUUUCCUGCUCCACUCAACAGAGGAUUGAGCAUCA
B19: 155451795_155451915_1284_3pUTR_ENSG00000116539_ENST00000392403|human|control|control (ssRNA)
RNA: GGGAGUUCUACAGUCCGACGAUCUCCCAGGAUCUUUAGUUACCAAUCCAACUGCUGUGCUGAUGGUUGGCUUUUUUAUUAAGUCCUUAUGUAUUAUUCCAGCUACAGAGCCAACACCUGCUUUCCUGAUCAAAUCCUUGCUAACAACAGAGGAUUGAGCAUCA
B20: chr19:7501953:7501954:-_ENSMUSG00000024758_ENSMUST00000025667|mus_mus|FALSE|FALSE (ssRNA)
RNA: GGGAGUUCUACAGUCCGACGAUCCGGAAGAAAUCCCACUCUUGCCCCAUACUAUUUAUUCAUAAGUUAAUCAUUAUUUCCUAACUUAAAAAUAAGGGCAAAAUUAUAAAUGGGAGCUGUAUACGAGUCCUUGGAACUGGAGAGCAACAGAGGAUUGAGCAUCA
B21: chr8:117878989:117878990:-_ENSG00000164754_ENST00000297338|hu_hu|hu_hu_hu_mus_True|48_98 (ssRNA)
RNA: GGGAGUUCUACAGUCCGACGAUCCCAGAGGCCCUCGUUUACUGAGAACAAAAUGUGCGUAGAACAUUUUUCUUAUUUGCUAUGAAAACAGAAGAAACCUGGAUCUCGGCGGGGAGCCGGGAGGGGUGGGUGGCCCGGGGAGGGCAACAGAGGAUUGAGCAUCA
B22: chr21:34923711:34923712:+_ENSG00000159140_ENST00000381679|hu_mus|FALSE|FALSE (ssRNA)
RNA: GGGAGUUCUACAGUCCGACGAUCCAUCUGAGAAUCCAUAGUGUUGGAUGCUAGCAUCUGGGAGUCCAUGGUAUUGGAUGCUAACAUAUGGGUCUCCAUGGUGUUAGAAGCUAGCAUAUGGGAUUCUUGGGCCAUCAAGGGGUCCAACAGAGGAUUGAGCAUCA

This is one part of the list.

The test deals with T1, UNK ZnF1-3. Kind of test: nsRBNS (natural sequence RNA bind-n-seq); RBNS binding buffer (assumed for nsRBNS): 25 mM Tris pH 7.5, 150 mM KCl, 3 mM MgCl2, 0.01% Triton X-100, 500 ug/ml BSA, 20 U/ml SUPERase-In, 4 C; UNK is unkempt and MSI1 is Musashi-1; names of the RNAs are library labels; protein concentration not given here; high values mean tight binding.
The molecule B1 showed a binding signal of 1.05 enrichment R.

As for B2, the binding signal came out at 0.53 enrichment R.

Regarding B3, the binding signal came to 0.603 enrichment R.

B4 gave a binding signal of 0.998 enrichment R.

As to B5, the binding signal came to 1.02 enrichment R.

Molecule B6 displayed a binding signal of 1.78 enrichment R.

As to B7, the binding signal was 1.05 enrichment R.

B8 showed a binding signal of 1.39 enrichment R.

Regarding B9, the binding signal came out at 0.465 enrichment R.

As for B10, the binding signal came to 1.56 enrichment R.

Turning to B11, the binding signal was 1.22 enrichment R.

B12 showed a binding signal of 0.948 enrichment R.

As to B13, the binding signal was 0.784 enrichment R.

Consider B14, for which the binding signal was 1.93 enrichment R.

The molecule B15 yielded a binding signal of 0.619 enrichment R.

In the case of B16, the binding signal was 0.39 enrichment R.

For B17, the binding signal stood at 0.731 enrichment R.

B18 came in with a binding signal of 0.716 enrichment R.

Molecule B19 returned a binding signal of 0.765 enrichment R.

The molecule B20 displayed a binding signal of 0.803 enrichment R.

The molecule B21 displayed a binding signal of 1.87 enrichment R.

B22: the binding signal worked out at 1.08 enrichment R.

For the origin of these results see article PMC12136788.
